Some of the results follow. At the low end of the ranking the order means little. Measured with an extract: partners may take part in the binding.

This experiment has as its target T1, HNF4alpha8 (COS-7 nuclear extract) (UniProt P41235-5).
T1 sequence: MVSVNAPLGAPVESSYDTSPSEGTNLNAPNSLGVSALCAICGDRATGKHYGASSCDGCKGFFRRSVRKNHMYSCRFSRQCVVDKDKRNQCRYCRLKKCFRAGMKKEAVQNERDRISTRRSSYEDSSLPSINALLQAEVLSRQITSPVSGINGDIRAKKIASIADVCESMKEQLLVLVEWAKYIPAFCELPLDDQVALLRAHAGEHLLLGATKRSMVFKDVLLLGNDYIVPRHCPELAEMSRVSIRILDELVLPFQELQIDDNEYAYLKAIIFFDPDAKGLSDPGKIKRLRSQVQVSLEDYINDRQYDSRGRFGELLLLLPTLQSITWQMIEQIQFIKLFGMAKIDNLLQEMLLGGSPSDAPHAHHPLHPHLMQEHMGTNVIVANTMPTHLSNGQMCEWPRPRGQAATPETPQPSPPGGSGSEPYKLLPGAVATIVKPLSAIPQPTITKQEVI
Description: protein-binding microarray. Particulars: COS-7 nuclear extract on double-stranded Agilent 4x180k PBM; binding buffer, salt, pH and temperature not given; high values mean tight binding; double strand, one strand shown; sequences stand for … in …GCCTAGGGAGATTAGAGTATCGGTCGA
For the sequence AGGTCCAAACTTCTCCACTCTTCATAATTA, the binding signal (log2 normalized intensity) is -0.86.
TCCAGGCTGCACAGTGGGGAGGGCAGGGTC: the binding signal (log2 normalized intensity) stood at 2.52.
For the sequence ATCGAAGTCTGGGAAGCTGTGTGAAGTGAC, the binding signal (log2 normalized intensity) was -0.114.
To AACAAACAGTACATTCTGGAATGATACGCC belongs -0.937; to CCAAAGAAGAAAACAATGACCTCTGCACCC, 6.16; to ATAACCATCAAATCCTCGGAAGACGCACCT, -1.29.
To CATTTGCTCCCAGTGCACACAGACTTTTGT belongs 0.698; to ACTTTGGGGAAATGACCTTTGTCCAGCTGT, 7.84; to GAAAATCAAAGACTCAGATGAGTTTCTTCA, -0.907.
With GTGCAGTATCCCAGGGACTTACTCAACTAG, the binding signal (log2 normalized intensity) was -1.31.
Take GGATGTGGGGTATCAGGTGGTGATGGTGGG: the binding signal (log2 normalized intensity) was determined as 1.23.
For the sequence AGCTGGCACAGCAGATGCTGGGCAAAGGGC, the binding signal (log2 normalized intensity) turned out to be 4.21.
TGCAGTAAATGGACAGACACACCCTTCAGA: the binding signal (log2 normalized intensity) was -1.24.
To TTCCCCAGTGAGGATGTGTGCTCGAGGTGG belongs 1.11.
CTTCCCCAAACTAGGAGAGTGGACTCACAG: the binding signal (log2 normalized intensity) came to 3.31.
To CTGAGTTACAGATAAGCAGAAGGTCAGGTG belongs 1.77.
To ACAGGTGGACAAACAGGCTGAACATGACTG belongs -1.33.
To CTATGCACACGTTCAGTTAGAGGGCTCAAT belongs -1.23; to GCAACAGAAAACTCAACTTCTAACTTCCGG, -1.22.
Take CCTAAAAATTATCTTTATCTTTTCACTTTT: the binding signal (log2 normalized intensity) came to 0.601.
TAATTTTCAACCTCTTTCTCTTTGATGTAA: the binding signal (log2 normalized intensity) stood at 0.817.
Next, GACCTTTGATATTTGTGCCTAGTGGAAGGT: 4.39.
Next, TTATCAGCAGTGACTTGAGAGGCCAGTTTC: 0.207; CTCCTCAACCTCTCCAATGCTATGCTTTTA: -1.29; GACAGTGAGACGCAAGCATATCTCTAGATC: -1.29.
As to ACATGTCAAAGGTCAAAGGGCATAGCCTCA, the binding signal (log2 normalized intensity) was found to be 5.75.
Next, GCTGCGGATCAAAGGAGCTGGGCCTGTGCT: -1.35; ACGGAGCTGCCTCACATGAGCTAGAGCTCG: -1.26.
Turning to GTCTCTTCCTCAGTTTGTTCTTGGGGCCCA, the binding signal (log2 normalized intensity) was found to be 1.43.
In the case of GGACTCTGCCCTTAGCAGTGGGAGACAGGC, the binding signal (log2 normalized intensity) amounted to 3.76.
To CTGTGTCAAAAATCAGGGACAAAGTCCAAA belongs 7.06.
With AGTCTCTAGCCCCGCCCAGATGTCTGGCTA, the binding signal (log2 normalized intensity) worked out at 2.67.
CAGAAGCTGAGCTCCCCCAGTGAGCAATTC: the binding signal (log2 normalized intensity) came out at 2.88.
For CTAACCTTTGAACCAGATGGCCCTCTCCAA, the binding signal (log2 normalized intensity) was 3.28.
As to AAGTTTGTTTCTTATCACACAGTCAACATG, the binding signal (log2 normalized intensity) was 1.43.
To TTTGGTGAAACTCCACTACATTAGCAGCGC belongs -1.05; to CAGTCCTCTGCTTATCTGGCCTGCTGGGAA, -0.172; to CTGAGCCCTTATCTTTTTAGCAACTGGTAT, 1.14.
To AAAGAAGAAGTGAAAAGTCGTTTTCAGTGT belongs 0.217.
Next, CCTTTGGCATTGTGTTACGTCTGGTTTCTT: 1.67.
Take AGTTATCTAAGACCCATCCCTCAGGGTCCA: the binding signal (log2 normalized intensity) came out at 4.17.
As to TTACGTAAGTGAAAGTACACAGTGCCTGCT, the binding signal (log2 normalized intensity) was -0.84.
With TATCATCCCTATCACTCAAGAAATGGCAGT, the binding signal (log2 normalized intensity) is -0.405.
Next, CTTACCCCTTTGCTGATTACCTCAACTCCC: 1.55.
Next, AAAGGCCTTTGAAGCTTGAAGGAGTATATG: 0.256; ACAGAGAGGCTTCTGGCCAGGCAGAGCAGG: -1.36; TTGACTGAGACTGCCTCAAACAGCTTCGCC: -1.35.
Next, AACAGGTCCTGCTGGTTTGCCATTTGGAGA: 0.548.
Regarding GTATGAGGGTGAAGTTTGGCAATTACCCAA, the binding signal (log2 normalized intensity) is -1.27.
Next, ACGGTGGGCACCTCATACTATACCTGATAG: -1.21; TTGCCTAAAGGGGATTTTCTCAGCTCTCCT: -1.3.
To GGATCAAAGGAGCTGGGCCTGTGCTGGGGA belongs -1.35.
Next, GTCTGCCCTCCATGTAACCCCTTTTCAATT: 3.57; TAAAGTCTGCTATCTAAAAGCTTATCTGCA: -1.22.
On to ATGTTTTCACCAAGAGGGAAAAGATGGTCT, for which the binding signal (log2 normalized intensity) turned out to be 0.365.
In the case of AACAAATAAATAAGAAGCCTTATCAGTATC, the binding signal (log2 normalized intensity) is -1.28.
To CGGTGGGACTAAATTCTGCGGCGGAAGGAC belongs -1.36.
To TAACTTTTGTCTCTGGAGGGATCAGGTCTT belongs 1.25; to TAGGGTAGGGTTAGGGTTAGGGGTTAGGGG, 0.702; to TTATATTGAATTCCTGGAAATCCCGAAATA, -1.38.
For the sequence AATTTCCAACAAATGAAACTAAAGGCACCT, the binding signal (log2 normalized intensity) is -1.15.
For CAGCAGTGTACTTGAGCTTCCAGTTAAGCA, the binding signal (log2 normalized intensity) was -1.34.
To AATCCCAGCTCGTGGGCATGCCTCCCAGAG belongs -1.22; to CCTGCCAACTCCACGCCCGCCGCCAGGTGG, -1.32.
To GGTCACATGCCTAGGTAAGCCCACTAGGGA belongs -1.36; to AGGCACTTAGCAAATATTTACTGAATGAAT, -1.17.
With ACACCTGTTCTAATCAGTAGCTCACAAATA, the binding signal (log2 normalized intensity) is -1.32.
As to GGGGGGTGTTATCTCTGATGCCCTTTGGCC, the binding signal (log2 normalized intensity) was 7.01.
To CCCAGGCTTATCTCACTCCAAAGGCTGTTT belongs 0.193; to GTCGCTTGGAAAAAAAAAAAAAAAAAAGAA, -1.34; to ACCAGGGGCCAGCAAGAGGTGACCCCAGGG, 4.66.
Turning to CCTTCCAGCAGCAGGCCTGGGGGCAAAGTC, the binding signal (log2 normalized intensity) is 3.59.
Next, GTTACAGTGGAGAAACCTGACAGACTGGAC: -1.37.
To AAGATAGAGGCTTTAGCAATAAATTCTGTT belongs -1.3; to CTGTGTTTTGCCCCTGCAGAGTTTTTTACT, 1.91; to GTGGGGAAAGAGCCCCTTTGTCCATTATCT, 0.534.
For AGTGGAAATTGTCCTGCGGTTGGCTCAGGC, the binding signal (log2 normalized intensity) was -1.31.
Next, TCCATCTAAATGGCAATGGCTGCAGCTCTT: -1.32.
To GACAATGGGAGACATTCCTTCAGCGTGAAC belongs -0.781; to CGGACAGGTAACGTAAACAAGTAAGGAAGA, -1.36.
Next, TCAAAGTGTCAGTCCAGAGTTTGTGGCTCC: 0.982.
On to CAGGTATTTGCTCTGTGATAGCCTTTTACC, for which the binding signal (log2 normalized intensity) was determined as 1.5.
Next, TAGAAAGTGGTTTCAAGGTGACCCCACGGA: 4.79.
To AATGCAGGGAGCAGAGTCCCAAGCATCTCT belongs -1.29; to AGGACTTTCAACCCTGTGATGACCCCATAC, 5.2.
Next, GCCCCATCTATCTAGCCTGAAGTCTTAACC: 0.217; GTACTTTGTACATGGGAATAGACATTCCAG: 1.99; TCCTGATGACTGCAGAGCTTGCTCTCACCA: -1.28.
Regarding CAGCGGGGTCAGAGAAACCTGGCTGCGAGT, the binding signal (log2 normalized intensity) was -1.29.
Next, AGCACAGGAAAGGGCTTTGGGGACTGAAGA: -1.24; CACTTGTTTGCACAAAGGGTTATGGGAAGT: 0.514; TTCTGAAGCCCTACAGCCCACAATTGCATG: -0.739.
Next, GAATGGAAACCCCTGTAAGTCCAAACAAAA: 1.63.
